The values that follow come from PMC11658185, “Analysis of the quadruple lsu mutant reveals molecular determinants of the role of LSU proteins in sulfur assimilation in Arabidopsis” (The Plant Journal, 2024).

Assay [1] has as its target T1, adenosine 5' phosphosulfate reductase isoform APR3 (A. thaliana) (UniProt P92980).
T1 sequence: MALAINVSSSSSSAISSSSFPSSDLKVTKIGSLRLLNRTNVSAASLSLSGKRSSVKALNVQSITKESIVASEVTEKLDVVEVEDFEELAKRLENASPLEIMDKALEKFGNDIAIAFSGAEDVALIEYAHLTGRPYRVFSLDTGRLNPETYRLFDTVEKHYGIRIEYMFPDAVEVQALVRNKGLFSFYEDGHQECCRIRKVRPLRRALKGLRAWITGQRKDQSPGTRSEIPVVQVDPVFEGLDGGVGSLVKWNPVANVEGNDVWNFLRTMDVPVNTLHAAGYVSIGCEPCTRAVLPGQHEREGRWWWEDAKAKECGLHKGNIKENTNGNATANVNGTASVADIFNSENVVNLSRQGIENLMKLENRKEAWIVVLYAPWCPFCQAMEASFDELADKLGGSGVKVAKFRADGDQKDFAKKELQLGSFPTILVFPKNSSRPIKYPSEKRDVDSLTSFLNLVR
The assay can be described thus: two-hybrid; yeast two-hybrid, ORFs in pDEST-GAD or pDEST-GBK (GAL4 AD and BD fusions); the panel of enzymes and LSU proteins tested in both orientations; growth on selection media, plates 3 days at 30°C.

In assay [2] the target is T2, sulfite reductase (SiR) (A. thaliana) (UniProt Q9LZ66).
T2 sequence: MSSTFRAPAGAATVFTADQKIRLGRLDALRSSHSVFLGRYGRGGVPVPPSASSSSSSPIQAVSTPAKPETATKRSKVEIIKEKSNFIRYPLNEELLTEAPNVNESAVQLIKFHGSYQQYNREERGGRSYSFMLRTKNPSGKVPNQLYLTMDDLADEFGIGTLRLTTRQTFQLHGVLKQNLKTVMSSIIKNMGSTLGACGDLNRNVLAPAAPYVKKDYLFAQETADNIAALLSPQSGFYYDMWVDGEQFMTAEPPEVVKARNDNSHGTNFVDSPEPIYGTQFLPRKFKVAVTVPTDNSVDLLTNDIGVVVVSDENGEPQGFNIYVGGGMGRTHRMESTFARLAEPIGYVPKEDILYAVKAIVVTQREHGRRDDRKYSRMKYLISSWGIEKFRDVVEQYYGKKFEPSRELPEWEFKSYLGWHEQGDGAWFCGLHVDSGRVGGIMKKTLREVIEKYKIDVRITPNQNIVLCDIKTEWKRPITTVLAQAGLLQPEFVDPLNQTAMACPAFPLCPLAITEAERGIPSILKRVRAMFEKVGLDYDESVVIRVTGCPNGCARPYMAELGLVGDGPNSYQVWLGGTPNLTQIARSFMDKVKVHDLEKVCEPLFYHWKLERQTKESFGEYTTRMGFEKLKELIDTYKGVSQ
The assay is described as above.

Assay [3] addresses T3, adenosine 5' phosphosulfate reductase isoform APR2 (A. thaliana) (UniProt P92981).
T3 sequence: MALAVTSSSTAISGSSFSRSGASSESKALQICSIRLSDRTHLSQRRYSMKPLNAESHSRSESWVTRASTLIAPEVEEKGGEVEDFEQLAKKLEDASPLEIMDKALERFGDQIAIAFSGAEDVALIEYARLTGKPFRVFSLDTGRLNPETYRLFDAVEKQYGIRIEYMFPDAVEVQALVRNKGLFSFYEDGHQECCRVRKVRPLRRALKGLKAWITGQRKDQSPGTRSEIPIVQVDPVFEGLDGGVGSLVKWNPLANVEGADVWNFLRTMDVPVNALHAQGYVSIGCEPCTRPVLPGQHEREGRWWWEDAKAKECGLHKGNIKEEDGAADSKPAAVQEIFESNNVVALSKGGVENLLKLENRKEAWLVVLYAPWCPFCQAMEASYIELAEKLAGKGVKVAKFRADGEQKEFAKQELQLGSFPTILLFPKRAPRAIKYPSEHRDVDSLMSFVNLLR
The assay is described as above.

Assay [4] has as its target T4, adenosine 5' phosphosulfate reductase isoform APR1 (A. thaliana) (UniProt P92979).
T4 sequence: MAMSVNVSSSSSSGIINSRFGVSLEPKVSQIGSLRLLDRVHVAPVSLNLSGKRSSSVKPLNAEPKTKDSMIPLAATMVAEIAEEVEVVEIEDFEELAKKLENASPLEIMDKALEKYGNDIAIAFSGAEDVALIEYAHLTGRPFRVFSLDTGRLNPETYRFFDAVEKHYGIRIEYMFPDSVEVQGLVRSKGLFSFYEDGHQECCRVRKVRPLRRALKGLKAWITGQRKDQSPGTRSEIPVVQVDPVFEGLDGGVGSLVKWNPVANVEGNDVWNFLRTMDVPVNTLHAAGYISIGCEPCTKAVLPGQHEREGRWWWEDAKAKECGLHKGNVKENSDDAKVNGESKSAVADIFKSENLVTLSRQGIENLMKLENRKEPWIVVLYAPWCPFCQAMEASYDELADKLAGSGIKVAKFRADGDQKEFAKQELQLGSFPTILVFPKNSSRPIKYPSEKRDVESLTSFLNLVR
Described as above.

The target of assay [5] is T5, SiR N-terminal region (1-322) (A. thaliana) (UniProt Q9LZ66).
T5 sequence: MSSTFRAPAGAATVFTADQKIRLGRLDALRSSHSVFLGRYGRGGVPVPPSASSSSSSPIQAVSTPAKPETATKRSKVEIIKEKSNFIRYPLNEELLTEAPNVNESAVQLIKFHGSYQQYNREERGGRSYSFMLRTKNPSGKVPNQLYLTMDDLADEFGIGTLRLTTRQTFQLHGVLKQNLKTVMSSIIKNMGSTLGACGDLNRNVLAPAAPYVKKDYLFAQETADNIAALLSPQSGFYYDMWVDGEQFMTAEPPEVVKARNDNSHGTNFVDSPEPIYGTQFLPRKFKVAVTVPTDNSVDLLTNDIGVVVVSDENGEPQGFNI
The description is as above.

In assay [6] the target is T6, SiR region of amino acids 467-565 (A. thaliana) (UniProt Q9LZ66).
T6 sequence: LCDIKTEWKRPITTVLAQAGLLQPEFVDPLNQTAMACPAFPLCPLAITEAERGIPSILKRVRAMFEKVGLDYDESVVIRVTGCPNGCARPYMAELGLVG
Described as above.

Assay [7] has as its target T7, SiR C-terminal domain (467-642) (A. thaliana) (UniProt Q9LZ66).
T7 sequence: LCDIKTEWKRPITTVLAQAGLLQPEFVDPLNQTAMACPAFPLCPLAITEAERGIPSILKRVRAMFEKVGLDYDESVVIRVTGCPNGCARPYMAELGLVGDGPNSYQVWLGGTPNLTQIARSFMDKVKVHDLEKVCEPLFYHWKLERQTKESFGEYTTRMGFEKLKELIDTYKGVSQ
Described as above.

Assay [8] has as its target T8, ATPS1 linked to the C-terminal section of YFP (A. thaliana) (UniProt Q9LIK9).
T8 sequence: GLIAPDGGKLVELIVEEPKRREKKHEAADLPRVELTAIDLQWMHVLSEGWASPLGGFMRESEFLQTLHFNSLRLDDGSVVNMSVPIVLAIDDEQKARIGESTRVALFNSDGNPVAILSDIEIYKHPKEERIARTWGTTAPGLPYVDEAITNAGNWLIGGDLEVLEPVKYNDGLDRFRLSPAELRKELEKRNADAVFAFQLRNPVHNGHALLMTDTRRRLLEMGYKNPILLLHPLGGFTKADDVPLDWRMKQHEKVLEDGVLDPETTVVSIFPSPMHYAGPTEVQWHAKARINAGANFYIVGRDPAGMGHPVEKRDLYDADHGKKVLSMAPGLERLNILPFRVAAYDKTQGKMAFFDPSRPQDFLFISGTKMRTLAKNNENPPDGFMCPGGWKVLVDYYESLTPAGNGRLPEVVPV
The assay can be described thus: split reporter; BiFC in agroinfiltrated N. benthamiana leaves; nEYFP linked to LSU1, cEYFP linked to ATPS1, APR1 or SiR; confocal microscopy.

For assay [9], the target named is T9, APR1 linked to the C-terminal section of YFP (A. thaliana) (UniProt P92979).
T9 sequence: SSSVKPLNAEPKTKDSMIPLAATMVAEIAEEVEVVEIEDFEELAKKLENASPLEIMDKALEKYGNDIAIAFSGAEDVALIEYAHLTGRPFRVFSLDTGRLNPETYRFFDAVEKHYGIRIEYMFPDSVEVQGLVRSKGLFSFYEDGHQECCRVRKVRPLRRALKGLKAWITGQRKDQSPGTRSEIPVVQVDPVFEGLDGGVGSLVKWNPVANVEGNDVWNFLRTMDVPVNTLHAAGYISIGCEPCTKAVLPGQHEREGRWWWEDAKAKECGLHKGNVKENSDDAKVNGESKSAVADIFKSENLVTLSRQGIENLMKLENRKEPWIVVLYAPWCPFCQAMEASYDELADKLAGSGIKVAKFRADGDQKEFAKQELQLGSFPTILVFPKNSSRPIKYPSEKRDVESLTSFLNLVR
Described as above.

Assay [10] addresses T10, SiR linked to the C-terminal section of YFP (A. thaliana) (UniProt Q9LZ66).
T10 sequence: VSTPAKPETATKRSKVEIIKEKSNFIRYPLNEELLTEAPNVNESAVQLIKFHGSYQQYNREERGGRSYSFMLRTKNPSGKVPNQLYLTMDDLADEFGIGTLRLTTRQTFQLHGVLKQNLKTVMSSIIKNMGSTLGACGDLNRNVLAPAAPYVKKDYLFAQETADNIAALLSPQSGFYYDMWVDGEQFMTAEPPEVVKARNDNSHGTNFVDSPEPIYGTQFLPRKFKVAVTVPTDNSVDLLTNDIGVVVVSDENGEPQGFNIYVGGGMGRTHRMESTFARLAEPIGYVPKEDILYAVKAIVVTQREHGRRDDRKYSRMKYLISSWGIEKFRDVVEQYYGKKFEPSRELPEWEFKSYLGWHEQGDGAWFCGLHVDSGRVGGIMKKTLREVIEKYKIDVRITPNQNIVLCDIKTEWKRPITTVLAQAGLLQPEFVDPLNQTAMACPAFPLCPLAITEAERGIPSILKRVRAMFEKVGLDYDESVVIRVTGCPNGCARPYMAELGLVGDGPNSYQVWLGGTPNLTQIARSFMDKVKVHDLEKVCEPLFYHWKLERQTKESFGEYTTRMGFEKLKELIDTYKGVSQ
The description is as above.

Results are given in words; binding and its absence hold for the method and conditions named. For some of these results: Binding seen in cells or lysates may run through a third protein. Some binding calls cover weakened binding; strength is not graded here. For some of these results: Where a sequence is shown, tags or fusion partners need not be part of it.

B1: LSU4 (RESPONSE TO LOW SULFUR 4) (protein, UniProt Q8L8S2 1-92)
chain: MGKGGNYVMVAASEVEELRQKNGEMEKAVEEMRKEMLQLWRRTQVAEEAEEHLCSQLAELEAESLDQARDYHTRIIFLTNQLSRFSSDSASP
On to B1, for which the binding entry in [1], in [2], in assay [3] and in assay [4] was “binds” each time.

B2: LSU1 (RESPONSE TO LOW SULFUR 1) (protein, UniProt Q9SCK1 1-94)
chain: MANRGGCVTVAAEEMDELRRRNIELSREVAEMKTEMIKLWQRTVVAEEAEEQLCSQLAELEVESLEQARDYHDRMLFLMDQISRLSSSSVVSSS
For the molecule B2, the binding entry is recorded as “binds” in assay [1]; “no binding” in assay [5]; “binds” in [2]; “binds” in assay [6]; “binds” in [7]; “binds” in [3]. Also, the binding result in assay [4] was “binds”.

B3: LSU1 linked to the N-terminal section of YFP (protein, UniProt Q9SCK1 1-94)
chain: MANRGGCVTVAAEEMDELRRRNIELSREVAEMKTEMIKLWQRTVVAEEAEEQLCSQLAELEVESLEQARDYHDRMLFLMDQISRLSSSSVVSSS
As to B3, the binding entry in assay [8], in assay [9] and in assay [10] was “binds” throughout.

B4: LSU3 (RESPONSE TO LOW SULFUR 3) (protein, UniProt Q9SCK2 1-97)
chain: MGKGGGYVTVAAEEVEELRRRNGELEREMEEMKKEMVQLWRRTVVAEEAEERLCSQLAELEVESLDQARDYHSRIVFLMDQISRLSSSSLEVVVTNS
As to B4, the binding entry in assay [1], in assay [2], in assay [3] and in [4] was “binds” throughout.

B5: LSU2 (RESPONSE TO LOW SULFUR 2) (protein, UniProt Q9FIR9 1-94)
chain: MGKGGNYVTVAASEVDELRRKNGEMEKAVEEMKKEMLQLWRRTQVAEEAEERLCSQLAELEAESLDQARDYHSRIIFLMNELSRLSSDSASASP
On to B5, for which the binding entry in assay [1], in assay [2], in assay [3] and in [4] was “binds” throughout.
